Experimental data taken from the supplement of paper PMC4967469.
The IC50 comes from the fitted curve, where viability falls to half of the control; a limit (>, <) means that the fit lies beyond the doses tested. The AUC spans the tested range (256-fold, ending at the top dose) of the same fit: 1 means no effect, lower means more sensitive. For some of these results: Where the top dose is marked as inferred, it comes from the curve model; the source does not state it.

How the values were obtained:
Experiment in all cases: Viability of human cancer cell lines after 72 h of drug (GDSC screen)
BMX-IN-1 (QL-XII-61) = compound: C=CC(=O)Nc1cc(-n2c(=O)ccc3cnc4ccc(-c5ccc(NS(C)(=O)=O)cc5)cc4c32)ccc1C [BMX-IN-1 (QL-XII-61)]; settings: top dose 10 µM; top dose inferred
Procedure: (§1)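 Human cancer cell lines in 384-well plates, medium with 10% serum, drug for 72 h over a 256-fold dose range (nine 2-fold or five 4-fold steps up to the top dose). Adherent lines were fixed and stained with the nucleic acid dye Syto60, suspension lines read with resazurin; signal relative to control wells, capped at 0 and 100%. One two-parameter sigmoid per drug and line, fitted in a mixed model over all curves with the slope shared within a line.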

17-AAG = compound: C=CCNC1=C2C[C@@H](C)C[C@H](OC)[C@H](O)[C@@H](C)/C=C(\C)[C@H](OC(N)=O)[C@@H](OC)/C=C\C=C(/C)C(=O)NC(=CC1=O)C2=O [17-AAG]; settings: top dose 1 µM
Procedure: as §1

BIX02189 = compound: CN(C)Cc1cccc(N=C(c2ccccc2)c2c(O)[nH]c3cc(C(=O)N(C)C)ccc23)c1 [BIX02189]; settings: top dose 20 µM; top dose inferred
Procedure: as §1

Dimethyloxalylglycine = compound: COC(=O)CNC(=O)C(=O)OC [Dimethyloxalylglycine]; settings: top dose 4000 µM; top dose inferred
Procedure: as §1

Doxorubicin = compound: COc1cccc2c1C(=O)c1c(O)c3c(c(O)c1C2=O)C[C@@](O)(C(=O)CO)C[C@@H]3O[C@H]1C[C@H](N)[C@H](O)[C@H](C)O1 [Doxorubicin]; settings: top dose 1.024 µM
Procedure: as §1

OSI-027 = compound: COc1cccc2cc(-c3nc([C@H]4CC[C@H](C(=O)O)CC4)n4ncnc(N)c34)[nH]c12 [OSI-027]; settings: top dose 20 µM
Procedure: as §1

Vismodegib = compound: CS(=O)(=O)c1ccc(C(=O)Nc2ccc(Cl)c(-c3ccccn3)c2)c(Cl)c1 [Vismodegib]; settings: top dose 10 µM; top dose inferred
Procedure: as §1

VX-11e = compound: Cc1cnc(Nc2ccc(F)cc2Cl)nc1-c1c[nH]c(C(=O)N[C@H](CO)c2cccc(Cl)c2)c1 [VX-11e]; settings: top dose 5.12 µM; top dose inferred
Procedure: as §1

TG101348 = compound: Cc1cnc(Nc2ccc(OCCN3CCCC3)cc2)nc1Nc1cccc(S(=O)(=O)NC(C)(C)C)c1 [TG101348]; settings: top dose 10.24 µM
Procedure: as §1

UNC1215 = compound: O=C(c1ccc(C(=O)N2CCC(N3CCCC3)CC2)c(Nc2ccccc2)c1)N1CCC(N2CCCC2)CC1 [UNC1215]; settings: top dose 1 µM; top dose inferred
Procedure: as §1

CCT018159 = compound: CCc1cc(-c2n[nH]c(C)c2-c2ccc3c(c2)OCCO3)c(O)cc1O [CCT018159]; settings: top dose 10 µM; top dose inferred
Procedure: as §1

Cell Line | AUC (BMX-IN-1 (QL-XII-61)) | IC50 (BMX-IN-1 (QL-XII-61)) [µM] | AUC (17-AAG) | IC50 (17-AAG) [nM] | AUC (BIX02189) | IC50 (BIX02189) [µM] | AUC (Dimethyloxalylglycine) | IC50 (Dimethyloxalylglycine) [µM] | AUC (Doxorubicin) | IC50 (Doxorubicin) [nM] | AUC (OSI-027) | IC50 (OSI-027) [µM] | AUC (Vismodegib) | IC50 (Vismodegib) [µM] | AUC (VX-11e) | IC50 (VX-11e) [µM] | AUC (TG101348) | IC50 (TG101348) [µM] | AUC (UNC1215) | IC50 (UNC1215) [nM] | AUC (CCT018159) | IC50 (CCT018159) [µM]
A704 (kidney, adherent) | 0.984 | > 10 | 0.926 | > 1000 | 0.913 | > 20 | 0.761 | 1380 | 0.876 | 965 | 0.939 | > 20 | 0.985 | > 10 | 0.939 | > 5.12 | 0.885 | > 10.2 | 0.987 | > 1000 |  | 
ES3 (Ewing sarcoma, adherent) | 0.984 | > 10 | 0.817 | 598 | 0.901 | > 20 | 0.63 | 581 | 0.471 | 53.1 | 0.376 | 0.558 |  |  | 0.96 | > 5.12 | 0.675 | 2.03 | 0.983 | > 1000 |  | 
H513 (mesothelioma, semi-adherent) | 0.978 | > 10 | 0.65 | 179 | 0.96 | > 20 |  |  | 0.764 | 450 | 0.904 | > 20 | 0.986 | > 10 | 0.982 | > 5.12 | 0.841 | 9.46 | 0.983 | > 1000 | 0.985 | > 10
H2591 (mesothelioma, adherent) | 0.971 | > 10 | 0.866 | > 1000 | 0.884 | > 20 | 0.195 | 22.5 | 0.705 | 291 | 0.47 | 1.01 |  |  | 0.974 | > 5.12 | 0.95 | > 10.2 | 0.972 | > 1000 | 0.927 | > 10
HCC202 (breast, adherent) | 0.961 | > 10 | 0.889 | > 1000 | 0.939 | > 20 |  |  | 0.794 | 699 |  |  | 0.937 | > 10 | 0.946 | > 5.12 |  |  | 0.974 | > 1000 | 0.978 | > 10
HT55 (large intestine, adherent) | 0.934 | > 10 | 0.875 | 980 | 0.989 | > 20 | 0.656 | 675 | 0.897 | > 1020 | 0.99 | > 20 | 0.99 | > 10 | 0.984 | > 5.12 | 0.989 | > 10.2 |  |  |  | 
LB996-RCC (kidney, adherent) | 0.974 | > 10 | 0.764 | 421 | 0.977 | > 20 | 0.197 | 26.3 | 0.508 | 67.5 | 0.971 | > 20 |  |  | 0.98 | > 5.12 | 0.966 | > 10.2 | 0.981 | > 1000 | 0.983 | > 10
LNCaP-Clone-FGC (prostate, adherent) | 0.956 | > 10 | 0.864 | > 1000 | 0.93 | > 20 | 0.842 | 3410 | 0.659 | 189 | 0.232 | 0.184 |  |  | 0.931 | > 5.12 | 0.761 | 4.12 | 0.982 | > 1000 | 0.932 | > 10
MFE-319 (endometrium, adherent) | 0.983 | > 10 | 0.705 | 231 | 0.987 | > 20 | 0.759 | 1360 | 0.516 | 70.8 | 0.714 | 4.93 |  |  | 0.97 | > 5.12 | 0.958 | > 10.2 | 0.987 | > 1000 | 0.919 | > 10
NB7 (neuroblastoma, adherent) | 0.925 | > 10 | 0.892 | > 1000 | 0.971 | > 20 | 0.233 | 40.3 | 0.67 | 195 | 0.043 | < 0.0781 |  |  | 0.977 | > 5.12 | 0.8 | 5.22 | 0.974 | > 1000 | 0.926 | > 10
NCI-H1355 (lung adenocarcinoma, adherent) | 0.967 | > 10 | 0.617 | 151 | 0.978 | > 20 | 0.546 | 353 | 0.547 | 90.9 | 0.922 | > 20 |  |  | 0.968 | > 5.12 | 0.949 | > 10.2 | 0.971 | > 1000 | 0.887 | > 10
NTERA-2 cl.D1 (testis, adherent) | 0.967 | > 10 |  |  | 0.948 | > 20 | 0.273 | 56.9 | 0.137 | 4.68 | 0.715 | 5.02 | 0.984 | > 10 | 0.973 | > 5.12 | 0.844 | 7.22 | 0.975 | > 1000 | 0.848 | 7.34
